Data published in PubChem BioAssay AID602293 (National Center for Advancing Translational Sciences (NCATS), 2012).
About 30 (2%) of roughly 1,300 compounds were called active. Roughly 10% stayed inconclusive and do not appear here. The call rests on the fitted dose curve; in most records, active means well fitted inhibition curve with a large enough effect; inconclusive means small, poorly fitted or top-dose-only effect; inactive means flat fitted curve, though single readings scatter. Some of the results follow.

assay: qHTS for antagonists of the Thyroid Stimulation Hormone Receptor: Hit Validation in HTRF Activity in a Luteinizing Hormone Receptor Cell Line; details: LHR-expressing cell line, cAMP HTRF, antagonist mode; series mostly up to 58 µM; activity change, negative = inhibition: at the top concentration
How it was run: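 HEK 293 cells stably expressing LH receptor, in DMEM with 10% FCS and 100 uM RO 20-1724, incubated with compound 30 min at room temperature. cAMP measured by competitive HTRF (anti-cAMP cryptate vs cAMP-d2), excitation 330 nm, emissions 615 and 660 nm.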
On the % scale 0 is the no-effect control and ±100 the full control effect; potency means the concentration at half of the fitted maximal effect.

Activity change, negative = inhibition, inactive:
O=C(COc1ccc(Cl)cc1)Nc1nc(-c2cccs2)cs1 -1.27%
CCN(CC)C(=O)Cn1c(=O)n(-c2ccccc2)c(=O)c2sccc21 0.124%
O=[N+]([O-])c1cccc(S(=O)(=O)Nc2nc3ccccc3nc2Nc2cccc(S(=O)(=O)N3CCCCC3)c2)c1 -1.83%
COc1ccc(Cc2nc(C(=O)Nc3ccc(Cl)cc3)cs2)cc1 -1.91%
COc1ccc(NC(=O)CCNS(=O)(=O)c2ccc3c(c2)CC(C)N3C(C)=O)cc1 (stereo unspecified) 1.55%
S=c1sc2c(Cl)ncnc2n1-c1ccccc1 0.526%
COc1ccc(NC(=S)NC(=O)/C=C/c2ccco2)cc1 0.67%
NC(=O)CSc1oc(-c2ccco2)nc1S(=O)(=O)c1ccccc1 0.433%
COc1ccc(NS(=O)(=O)c2ccc3c(c2)Cc2ccccc2-3)cn1 1.94%
Cc1ccc(-c2cn3cc(C)ccc3n2)cc1 0.852%
Cc1ccc(NS(=O)(=O)c2cc(C(=O)Nc3cccc([N+](=O)[O-])c3)ccc2C)cc1 -4.12%
O=S(=O)(c1ccc(SCc2ccc(Cl)cc2)nc1)N1CCCC1 -7.02%
COc1ccccc1CNc1ncnc2sccc12 -2.06%
COc1ccc(OC)c(NC(=O)CSc2ncnc3c2cnn3-c2ccccc2Cl)c1 -8.87%
COC(=O)[C@H]1[C@H]2C[C@@H]3c4[nH]c5cc(OC)ccc5c4CCN3C[C@H]2C[C@@H](OC(=O)/C=C/c2cc(OC)c(OC)c(OC)c2)[C@@H]1OC 0.214%
CCOC(=O)C1=C(C)Nc2ccccc2N=C1NC(=O)c1cc(C)on1 1.59%
COc1cc2ccccc2cc1C(=O)N1CCCC1 3.1%
COc1ccc(/C=C/C(=O)N2CCN(C)CC2)cc1OC 2.37%
CCN(CC)c1ccc(NC2=C(Cl)C(=O)c3ccccc3C2=O)cc1 -0.455%
O=C(NCc1ccc2c(c1)OCO2)C12CN(Cc3ccccc3)CC1C(c1cccc([N+](=O)[O-])c1)=NO2 (stereo unspecified) -4.07%
O=C(CSc1ccccn1)Nc1cccc2ccccc12 0.417%
O=C(NC1CCOc2ccccc21)c1ccccn1 (stereo unspecified) 1.33%
COC(=O)CSc1nc(NCc2ccccc2)nc(N(C)C)n1 -1.27%
Cc1ccc(S(=O)(=O)/N=C2/NC(=O)/C(=C\c3cc(Br)cc(Br)c3O)S2)cc1 -4.27%
O=c1cc(C(F)(F)F)[nH]c2c(C(F)(F)F)cccc12 -3.14%
Cc1c(C=O)c2ccccc2n1CCOc1ccccc1 -0.311%
Cc1ccc(C)c(N2CCN(C(=O)C(Cc3ccccc3)n3cccc3)CC2)c1 (stereo unspecified) -3.11%
CC(C)C(=O)Nc1c(-c2ccc(Cl)cc2)c(=O)c2ccccc2n1C 0.128%
COc1ccc(NS(=O)(=O)c2cccc(NC(=O)c3ccc(S(=O)(=O)N4CCCCCC4)cc3)c2)cc1 -0.628%
CC(=O)C1=C(O)C(=O)N(c2ccc(O)cc2)C1c1cccc(F)c1 (stereo unspecified) 2.69%
Cc1ccc(-c2cc(C(=O)Nc3ccncc3)c3ccccc3n2)cc1 -2.05%
O=C1C(Cl)=C(Nc2ccc(O)cc2)C(=O)c2ccccc21 -6.39%
CCn1nc(C)c(NC(=O)/C=C/c2ccc(OC)c(COc3ccc(Br)cc3)c2)c1C -1.1%
C/C(=N\NC(=O)c1nnn(-c2nonc2N)c1-c1ccc(Cl)c(Cl)c1)c1ccncc1 1.95%
Cc1cc(C)cc(OC(C)C(=O)NCCCn2ccnc2)c1 (stereo unspecified) 3.41%
Cc1cc(NC(=O)CC(C)C)c(=O)n(Cc2cccc(F)c2)c1 3.16%
Cc1c(C(=O)Nc2nccs2)sc2nc(-c3cccs3)cc(C(F)(F)F)c12 -0.565%
O=C(Cn1ncc2c([nH]c3ccccc32)c1=O)NCC1CCN(Cc2ccc(F)cc2)CC1 2.07%
COc1ccccc1N1CCN(C(=O)CCC(=O)N2CCN(c3ccc(F)cc3)CC2)CC1 0.964%
Cc1cc(C)cc(C(=O)NC(CC(N)=O)c2ccc(NCCN3CCCC3)c([N+](=O)[O-])c2)c1 (stereo unspecified) 3.3%
Cc1cccc2c1NC(=O)C2(c1ccc(O)cc1)c1ccc(O)cc1 -2.97%
COc1ccc(NC(=O)c2ccc(-c3ccccc3)cc2)cc1NS(=O)(=O)c1ccc(F)cc1 -4.16%
Cc1ccc(OCc2nnc(NC(=O)c3cccnc3)s2)cc1 3.67%
CCN(CCCNC(=O)Cn1ncc2c([nH]c3ccc(C)cc32)c1=O)c1cccc(C)c1 1.03%
CC1CCCCN1C(=O)CSCC(=O)Nc1nc(-c2cccs2)cs1 (stereo unspecified) -0.159%
CC(NC(=O)c1cc(=O)[nH]c2ccccc12)c1ccc(F)cc1F (stereo unspecified) 3.66%
COc1ccc(-c2csc3ncnc(N4CCN(S(=O)(=O)c5cccs5)CC4)c23)cc1 -2.53%
CCSc1ncc(Cl)c(C(=O)Nc2ccccc2OC)n1 3.38%
Cc1ccc(CSc2nnc(SCC(=O)N/N=C/c3c(C)nn(-c4ccccc4)c3C)s2)cc1 -3.25%
O=S(=O)(Nc1cccnc1)c1ccc(Br)c2ccccc12 -4.2%
Cc1cc(C)n2nc(SCC(=O)Nc3ccccc3C)nc2n1 3.58%
COc1cc2cnc(-c3ccccc3)c(-c3ccc(C#N)cc3)c2cc1OC -1.55%
Cc1ccc(CNS(=O)(=O)c2ccc(CN3C(=O)c4cccnc4C3=O)s2)o1 0.189%
O=C(NCCC1=CCCCC1)C(=O)NCC1OCCCN1S(=O)(=O)c1cc(F)ccc1F (stereo unspecified) -0.628%
CC1=C(C(=O)OCC(Cl)(Cl)Cl)N2C(=O)C(NC(=O)Cc3ccccc3)C2SC1 (stereo unspecified) -0.583%
COc1ccc(-c2csc(NC(=O)c3ccccc3NS(=O)(=O)c3ccc(C)cc3)n2)cc1 -1.85%
CN(c1ccc(OCC(=O)Nc2nc3ccccc3s2)cc1)S(=O)(=O)c1ccccc1 -7.48%
Cc1ccc(C2(c3ccc(C)cc3)CC2C(=O)Nc2ccc([N+](=O)[O-])cc2O)cc1 (stereo unspecified) -0.67%
CN(C)S(=O)(=O)N1CCN(c2ccnc3cc(Cl)ccc23)CC1 -1.73%
COc1cccc(-c2nc(CS(=O)(=O)CC(=O)NC3CCCCCC3)c(C)o2)c1 -2.33%
Cc1cc(C)c(C2=NOC3C4CCC(C4)C23)c(C)c1 (stereo unspecified) 1.14%
Cc1ccnc(OC(C(=O)O)C(OCCc2ccccc2)(c2ccccc2)c2ccccc2)n1 (stereo unspecified) 2.55%
Cc1cc(NC(=O)c2cccc(S(=O)(=O)N3CCOCC3)c2)c2ccccc2n1 1.54%
CS(=O)(=O)N1CCc2cc(C(=O)Nc3ccc(COCC(F)(F)F)cc3)ccc21 1.08%
O=S(=O)(/N=C(/Nc1cccc2ccccc12)c1ccccc1)c1cccs1 1.61%
C(=N\N1CCN(Cc2cccc3ccccc23)CC1)/c1cccnc1 -1.18%
O=C(Nc1nnc(S(=O)(=O)N2CCCCCC2)s1)c1cccc(Br)c1 -1.72%
CSCC[C@H](NC(=O)c1ccc(Cl)c(S(=O)(=O)N2CCCC2)c1)c1nc2ccccc2[nH]1 0.364%
Cc1cc(Cl)c(S(=O)(=O)N2CCSCC2)cc1OCC(=O)NC1CCCCC1 -6.33%
CCCCn1c(-c2csc3c2CCCC3)n[nH]c1=S 1.6%
CC1CC(=O)N(c2ccc(C(C)C)cc2)C(=O)C1 2.84%
COc1ccc(NC(=O)Cn2nnc(C(=O)NCc3cccs3)c2N)c(OC)c1 2.52%
O=c1c2nncn2c2cccnc2n1CCNc1ncc(C(F)(F)F)cc1Cl 2.15%
Cc1ccc(Sc2ncccc2NC(=O)c2ccccc2Cl)cc1 2.16%
COc1ccc(CCNC(=O)c2cccc3c2C(=O)N(C2CCCCC2)C3)cc1OC -1.29%
COc1ccc2cc(/C=C3\SC(=S)NC3=O)c(N3CCOCC3)nc2c1 -2.49%
COc1ccc(OC)c(CCNC(=O)Cn2nc(C)c3c(C)n(-c4ccc(C)cc4)nc3c2=O)c1 -2.32%
COc1ccc(CNCc2cc(C)c(OC)cc2C)c(OC)c1 2.83%
CCOc1ccc(-n2c(SCC(=O)NC(C)CC)nc3n[nH]c(C)c3c2=N)cc1 (stereo unspecified) -2.18%
O=S(=O)(Nc1cccnc1)c1ccc(C2CCCCC2)cc1 1.64%
O=C1S/C(=C\c2ccc(O)c([N+](=O)[O-])c2)C(=O)N1c1ccccc1Cl 0.191%
Cc1ccc(NC(=O)CSc2nn(-c3ccccc3)c(=S)s2)cc1S(=O)(=O)N(C)C -4.13%
CSc1ccccc1OCc1cc(C(=O)NC2CCc3ccccc32)no1 (stereo unspecified) 2.6%
CSC1=NSC2=NC(=O)/C(=C\c3coc4ccccc4c3=O)C(=N)N12 0.028%
C=CC(C)(C)c1c2occc2c(O)c2ccc(=O)oc12 0.737%
COc1c(/C=C2\SC(=Nc3ccccc3Cl)NC2=O)cccc1[N+](=O)[O-] 1.86%
Cc1ccc(C(=O)N2c3ccccc3N(Cc3ccccc3)C(=O)C2(C)C)cc1 -7.47%
CN(Cc1ccccc1)S(=O)(=O)c1ccc(OCC(=O)NCc2ccccn2)cc1 0.458%
CCN(CC)c1ccc(C(=O)OCC(=O)N2CCCC2)cc1 2.17%
Cc1ccc(S(=O)(=O)Nc2ccccc2N2CCCCC2)cc1 -4.31%
O=c1[nH]c(-c2ccccc2F)nc2c1sc(=S)n2Cc1ccccc1 0.33%
O=C(/C=C/c1ccc(OCCCF)cc1)Nc1ccnc(-c2ccncc2)n1 -6.44%
Cc1nn(-c2ccccc2)c(Cl)c1CN(C(=O)CCl)c1ccc(Cl)cc1 -4.49%
C=C(C)c1cccc(C(C)(C)NC(=O)N(Cc2ccccc2)Cc2ccco2)c1 -2.7%
C=CCN1C(=O)C(Cc2ccc(OC)cc2)S/C1=N/N=C/c1ccco1 (stereo unspecified) 0.197%
COC(=O)c1ccc(-c2noc(CN(C)CCC3CCCCO3)n2)cc1 (stereo unspecified) -0.562%
CCN(CC)S(=O)(=O)c1cccc(NC(=O)CCSc2ccc(Cl)cc2)c1 -2.51%
O=C(N[C@H]1C/C=C\C(c2ccc(F)cc2)N(Cc2ccccc2)C(=O)C1)OCC1c2ccccc2-c2ccccc21 (stereo partly specified) -0.514%
O=C(O)c1ccc(NC2=C/C(=N/S(=O)(=O)c3ccccc3)c3ccccc3C2=O)cc1 -0.0131%

Potency, inactive:
O=C(Nc1ccc([N+](=O)[O-])cc1Cl)c1cc(Cl)ccc1O

Potency, active:
COc1ccc(CNC(=O)C(c2ccco2)N(C(=O)c2snc(C(N)=O)c2N)c2cccc(OC)c2)cc1 (stereo unspecified) 13.5 µM
